{"source": "PubChem BioAssay AID504332", "about": "(National Center for Advancing Translational Sciences (NCATS), 2011)", "note": "Where “and” joins values, the source holds several entries; their conditions need not be identical. Equal entries are not always repeated. The whole screen tested about 350,000 compounds, of which about 31,000 (8.9%) were called active. Inconclusive results, whose numbers are uncertain, are shown with a selection of clear calls. Calls follow the shape of the dose curve; as a rule, active = well fitted inhibition curve with a large enough effect; inconclusive = small, poorly fitted or top-dose-only effect; inactive = no such curve, though single readings can be large or run the other way. Potencies of inconclusive entries are doubtful fits and often do not repeat. % is scaled to controls: 0 for no effect and ±100 for the full control effect; potency is read from the fitted curve at half-maximal effect; tags tell the direction and shape of the fitted curve."}
{"target": "Histone-lysine N-methyltransferase EHMT2 (Homo sapiens) (UniProt Q96KQ7)", "sequence (Q96KQ7 whole entry, looked up)": "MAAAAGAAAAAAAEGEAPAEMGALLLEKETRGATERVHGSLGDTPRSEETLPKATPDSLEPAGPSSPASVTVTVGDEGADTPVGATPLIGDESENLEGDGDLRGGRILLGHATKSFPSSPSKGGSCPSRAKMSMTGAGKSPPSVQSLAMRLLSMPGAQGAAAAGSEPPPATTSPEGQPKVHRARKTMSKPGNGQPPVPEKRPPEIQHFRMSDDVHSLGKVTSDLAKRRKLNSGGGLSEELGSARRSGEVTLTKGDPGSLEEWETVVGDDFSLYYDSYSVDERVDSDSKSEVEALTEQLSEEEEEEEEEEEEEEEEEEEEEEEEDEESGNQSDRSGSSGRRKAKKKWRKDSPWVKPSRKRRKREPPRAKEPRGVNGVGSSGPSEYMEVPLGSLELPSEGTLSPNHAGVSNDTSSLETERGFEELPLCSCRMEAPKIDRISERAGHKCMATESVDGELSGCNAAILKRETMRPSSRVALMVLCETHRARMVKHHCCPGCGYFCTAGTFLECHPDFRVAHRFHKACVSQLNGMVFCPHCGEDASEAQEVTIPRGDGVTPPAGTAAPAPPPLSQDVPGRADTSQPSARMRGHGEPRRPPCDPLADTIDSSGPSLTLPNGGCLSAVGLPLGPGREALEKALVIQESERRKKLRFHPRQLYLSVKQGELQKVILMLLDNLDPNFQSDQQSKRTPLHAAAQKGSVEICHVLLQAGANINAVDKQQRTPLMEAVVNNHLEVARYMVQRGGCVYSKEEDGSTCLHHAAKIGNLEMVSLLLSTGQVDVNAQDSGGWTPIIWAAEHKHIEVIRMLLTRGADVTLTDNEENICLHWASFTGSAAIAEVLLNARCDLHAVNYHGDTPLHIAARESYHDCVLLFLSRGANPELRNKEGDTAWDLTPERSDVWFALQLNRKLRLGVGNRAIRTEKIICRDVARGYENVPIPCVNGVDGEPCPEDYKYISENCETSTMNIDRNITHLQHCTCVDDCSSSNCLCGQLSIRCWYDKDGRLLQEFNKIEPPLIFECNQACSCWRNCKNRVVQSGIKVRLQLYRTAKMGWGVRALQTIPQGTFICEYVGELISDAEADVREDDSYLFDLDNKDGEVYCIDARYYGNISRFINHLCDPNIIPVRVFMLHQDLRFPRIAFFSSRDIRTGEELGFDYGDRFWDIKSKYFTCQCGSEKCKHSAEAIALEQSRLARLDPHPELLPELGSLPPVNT", "test": "qHTS Assay for Inhibitors of Histone Lysine Methyltransferase G9a; also: nearly all actives have a fitted effect of over 75% in size", "conditions": "G9a H3K9 monomethylation, AlphaScreen, 2 h; activity, negative = inhibition: at 59 µM (top of the series) unless noted", "procedure,_shortened": "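Signal arises when biotinylated H3K9 peptide, once monomethylated, bridges streptavidin donor and antibody-captured acceptor beads. Enzyme at 20 nM was preincubated 15 min with test compounds; peptide 500 nM and SAM 20 uM then reacted for 2 h.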"}
{"compound": "Cc1cccc(CNc2ncnc3ccc(-c4cccc(Cl)c4)cc23)c1", "activity, negative = inhibition": "inactive: -21.2% [at 12.7 µM]"}
{"compound": "Cc1ccc(CN2CCN(C(=O)c3ccncc3)CC2)cc1", "Potency": "active: 8.91 µM"}
{"compound": "Cc1ccc(S(=O)(=O)Nc2cccc(C(=O)NCc3ccccn3)c2)cc1F", "activity, negative = inhibition": "inactive: 17.9% [at 0.501 µM]"}
{"compound": "CC1CCCC(N2CCN(S(=O)(=O)c3ccccc3)CC2)C1", "note": "(centres undefined)", "Potency": "active: 17.8 µM"}
{"compound": "O=C1c2ccccc2C2=Nc3ccccc3SC(c3cccc(F)c3)C12", "note": "(centres undefined)", "Potency": "inconclusive: 31.6 µM [inhibitor, single point]"}
{"compound": "COc1cccc(C2CC(=O)Nc3c2c(=O)[nH]c2ncnn32)c1OC", "note": "(centres undefined)", "Potency": "inconclusive: 22.4 µM [inhibitor, single point]"}
{"compound": "CC(=O)Nc1ccc(N=Cc2c(O)ccc3ccccc23)cc1", "Potency": "active: 1.78 µM"}
{"compound": "COc1cccc(OCCNc2cc(Cl)ccc2[N+](=O)[O-])c1", "Potency": "inconclusive: 8.91 µM [inhibitor, partial curve, poor fit]"}
{"compound": "Cc1ccc(CCc2nnc(SCC(=O)Nc3cccc(Cl)c3)n2-c2ccccc2)o1", "Potency": "inconclusive: 28.2 µM [inhibitor, single point]"}
{"compound": "Nc1nc(NCC2CCCO2)nc(Nc2ccc(Cl)cc2)c1[N+](=O)[O-]", "note": "(centres undefined)", "Potency": "inconclusive: 44.7 µM [inhibitor, partial curve, poor fit]"}
{"compound": "COc1ccccc1C(=O)Nc1cccc(OCc2cc(=O)n3c4c(sc3n2)CCCC4)c1", "activity, negative = inhibition": "inactive: 7.54%"}
{"compound": "CCC(C)N=C1Sc2nc3ccc(C)cc3cc2CN1CCOC", "note": "(centres undefined)", "Potency": "active: 5.01 µM"}
{"compound": "COc1ccccc1Nc1nn2c(=O)c3ccc(C(=O)NC4CCC(C)CC4)cc3nc2s1", "note": "(centres undefined)", "activity, negative = inhibition": "inactive: 2.57%"}
{"compound": "Cc1ccc(N2CSC3=C(C#N)C(c4cccs4)CC(=O)N3C2)cc1", "note": "(centres undefined)", "Potency": "active: 1.41 µM"}
{"compound": "COC(=O)c1c(C(=O)OC)c(-c2ccc(OC)cc2)n2c1CS(=O)(=O)C2", "Potency": "inconclusive: 1.12 µM [inhibitor, single point]"}
{"compound": "O=c1oc2ccc([N+](=O)[O-])cc2c(N2CCOCC2)c1[N+](=O)[O-]", "Potency": "inconclusive: 89.1 µM [inhibitor, partial curve, poor fit]"}
{"compound": "O=C(OCc1cc(=O)n2nc(C3CC3)sc2n1)c1ccc(NC(=O)c2ccccc2Cl)cc1", "activity, negative = inhibition": "inactive: 19.3%"}
{"compound": "Cn1c(-c2ccc(F)cc2)cnc1SCC(=O)Nc1ccccc1N1CCOCC1", "Potency": "active: 44.7 µM"}
{"compound": "Cc1ccc(N2C(=O)[C@@H]3C(C(=O)C(c4ccccc4)c4ccccc4)=NN[C@@H]3C2=O)cc1", "Potency": "inconclusive: 39.8 µM [inhibitor, single point]"}
{"compound": "COc1ccc(N2CCN(C(=O)CCNC(=O)Cn3ccc4ccccc4c3=O)CC2)cc1", "Potency": "inconclusive: 89.1 µM [inhibitor, single point]"}
{"compound": "Cc1sc2nc(CSc3ccccc3)nc(NCCN(C)C)c2c1C", "Potency": "inconclusive: 35.5 µM [inhibitor, partial curve, poor fit]"}
{"compound": "O=C(NCC(c1ccc2c(c1)OCO2)N1CCN(c2ccccc2)CC1)C(=O)Nc1ccccc1", "note": "(centres undefined)", "activity, negative = inhibition": "inactive: 7.79%"}
{"compound": "Cc1ccc(C2=NN(S(=O)(=O)c3ccccc3)C(c3ccccc3O)C2)cc1", "note": "(centres undefined)", "Potency": "inconclusive: 44.7 µM [inhibitor, partial curve]"}
{"compound": "O=C(CN1CCN(S(=O)(=O)c2ccc(F)c(Cl)c2)CC1)N1CCOCC1", "Potency": "active: 1.12 µM"}
{"compound": "CC(NC(=O)c1ccco1)C1CCCO1", "note": "(centres undefined)", "Potency": "inconclusive: 89.1 µM [inhibitor, single point]"}
{"compound": "Cc1cccc(NC(=O)CN2C(=O)S/C(=C\\C(=O)Nc3ccc(Cl)cc3)C2=O)c1", "activity, negative = inhibition": "inactive: 7.02%"}
{"compound": "COCCn1c(C(=O)N2CCCC2)cc2c1C[C@H]1CN(C(=O)c3ccccc3)[C@@](Cc3ccc(F)cc3)(C(=O)OC)[C@@H]21", "Potency": "inconclusive: 89.1 µM [inhibitor, single point]"}
{"compound": "c1ccc2sc(SN3CCOCC3)nc2c1", "Potency": "inconclusive: 2.24 µM [inhibitor, partial curve, poor fit] and inconclusive: 1.26 µM [inhibitor, partial curve, poor fit]"}
{"compound": "Cc1cc2ccccc2n1CCNC(=O)c1ccccc1F", "activity, negative = inhibition": "inactive: -5.84%"}
{"compound": "CCc1ccc(C2=C(C)C(N3CCC(C(=O)Nc4ccc(F)cc4)CC3)=NS2(=O)=O)cc1", "activity, negative = inhibition": "inactive: 6.8%"}
{"compound": "O=C(c1ccccc1)N1N=C(c2cccs2)CC1c1ccccc1O", "note": "(centres undefined)", "activity, negative = inhibition": "inactive: -4.03% [at 102 µM]"}
{"compound": "O=[N+]([O-])c1ccc(NC(=S)N2CCN(S(=O)(=O)c3ccccc3)CC2)cc1", "Potency": "active: 50.1 µM"}
{"compound": "COc1ccc(NS(=O)(=O)c2cccc(C(=O)NC3CCN(Cc4ccccc4)CC3)c2)cc1", "Potency": "inconclusive: 50.1 µM [inhibitor, single point]"}
{"compound": "Brc1ccc2c(c1)CN1CCCC1=N2", "Potency": "inconclusive: 79.4 µM [inhibitor, single point]"}
{"compound": "COc1cc([N+](=O)[O-])ccc1NC(=O)NCc1ccco1", "Potency": "inconclusive: 50.1 µM [inhibitor, partial curve, poor fit]"}
{"compound": "O=Cc1ccc2ccc3cccnc3c2n1", "Potency": "inconclusive: 0.631 µM [inhibitor, full curve, poor fit]"}
{"compound": "CC(C)(C)n1nnnc1C(c1cccs1)N1CCN(Cc2ccc3c(c2)OCO3)CC1", "note": "(centres undefined)", "Potency": "inconclusive: 3.16 µM [inhibitor, full curve]"}
{"compound": "Cn1nc2c(c1C(=O)O)CCCC2", "Potency": "inconclusive: 25.1 µM [inhibitor, single point]"}
{"compound": "CCOC(=O)C1CCCN(CCC(=O)Nc2ccccc2)C1", "note": "(centres undefined)", "Potency": "inconclusive: 89.1 µM [inhibitor, single point]"}
{"compound": "CC(=O)Nc1ccc(NC(=O)C(C)OC(=O)C2CC3C=CC2C3)cc1", "note": "(centres undefined)", "activity, negative = inhibition": "inactive: 23.3%"}
{"compound": "O=C(Nc1nnc(COc2ccc(Cl)cc2)s1)c1cccs1", "activity, negative = inhibition": "inconclusive: -117% [inhibitor] [at 12.7 µM]"}
{"compound": "O=C(NCCC(=O)N1CCN(c2ccccc2O)CC1)c1ccc(Br)cc1", "Potency": "inconclusive: 89.1 µM [inhibitor, single point]"}
{"compound": "CC(=O)c1sc(N)c(C(=O)OC(C)C)c1C", "Potency": "inconclusive: 89.1 µM [inhibitor, single point]"}
{"compound": "NS(=O)(=O)c1ccc(N/N=C2/CCCCC2C2CCCCC2)c([N+](=O)[O-])c1", "note": "(centres undefined)", "Potency": "inconclusive: 10 µM [inhibitor, partial curve, poor fit]"}
